Laboratory results reported in PubChem BioAssay AID360 (National Center for Advancing Translational Sciences (NCATS), 2006).
About 550 (1.1%) of roughly 48,000 compounds were called active. Another 4% or so got no clear call; they are omitted. No stated cut-off is given here; in the data, active means potency below about 15 µM; inconclusive means mostly about 16 µM to 33 µM; inactive means weaker than that. This is one part of the list.
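Further: the screen sought inhibitors.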
Potency means the concentration at half of the fitted maximal effect.

The compounds below were run against Lysosomal acid glucosylceramidase (Homo sapiens) (UniProt P04062) (assay: Glucocerebrosidase). Settings: purified enzyme, resorufin glucoside fluorescence (screen aimed at inhibitors), 20 min.
Chain of UniProt P04062 (P04062 whole entry, looked up): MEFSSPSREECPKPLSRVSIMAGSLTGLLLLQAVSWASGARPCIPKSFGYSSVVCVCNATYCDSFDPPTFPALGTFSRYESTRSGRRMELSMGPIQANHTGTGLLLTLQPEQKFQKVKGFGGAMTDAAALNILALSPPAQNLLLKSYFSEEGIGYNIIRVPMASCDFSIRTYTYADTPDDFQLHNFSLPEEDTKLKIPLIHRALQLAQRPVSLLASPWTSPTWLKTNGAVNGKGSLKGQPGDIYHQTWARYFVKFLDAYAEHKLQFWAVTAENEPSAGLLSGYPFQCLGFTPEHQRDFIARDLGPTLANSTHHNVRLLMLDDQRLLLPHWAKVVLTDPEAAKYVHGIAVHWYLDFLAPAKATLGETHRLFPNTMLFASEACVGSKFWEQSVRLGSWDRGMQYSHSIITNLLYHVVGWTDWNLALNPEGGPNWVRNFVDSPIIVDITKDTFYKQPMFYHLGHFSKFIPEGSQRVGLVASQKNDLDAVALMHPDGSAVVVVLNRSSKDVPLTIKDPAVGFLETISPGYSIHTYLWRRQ
Outline: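 Wild-type enzyme at 0.2 nM final in 50mM citric acid/KH2PO4, 10mM sodium taurocholate, 0.01% tween-20, pH 5.9, with resorufin beta-D-glucopyranoside at 30 uM final. Compounds titrated, 20 min at RT, red fluorescence read; AC50 from titration.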
`O=C(CSc1nnc(Cc2ccccc2)o1)NCCN1C(=O)CSC1=O` was tested, and the Potency was inactive: > 76.9 µM.
In the case of `O=C(NCc1ccc2c(c1)OCO2)c1nn(-c2ccccc2)c(=O)c2ccccc12`, the Potency is reported as inactive: > 76.9 µM.
For `CCOc1ncccc1C(=O)OCc1cc(=O)oc2c(C)c(C)ccc12`, the Potency was inactive: > 76.9 µM.
With `COc1cc(OC)cc(C(=O)NC2CC3CCC(C2)N3Cc2ccco2)c1` (stereo not given) the Potency was inactive: > 76.9 µM.
For `Cc1noc(C)c1COC(=O)c1ccc2c(c1)S(=O)(=O)c1ccccc1C2=O`, the Potency was inactive: > 76.9 µM.
With `Cc1ccccc1-n1c(=O)cc(N2CCC3(CC2)OCCO3)[nH]c1=O` the Potency was inactive: > 76.9 µM.
With `Cn1c(Cn2nnc3ccccc32)nnc1SCC(=O)Nc1ccc2c(c1)OCO2` the Potency was inactive: > 76.9 µM.
For `COc1ccc2sc(N3C(=O)C4CC=C(C)CC4C3=O)nc2c1` (stereo not given), the Potency was inactive: > 76.9 µM.
For `COc1ccc(NC(=O)CNS(=O)(=O)c2cccs2)cc1`, the Potency was inactive: > 76.9 µM.
For `COc1cc(OC)cc(C(=O)N2CCN(C(=O)c3ccc(OC)c(OC)c3)CC2)c1`, the Potency was inactive: > 76.9 µM.
For `O=C(NC1CCN(C(=O)Nc2cccc(F)c2)CC1)C1CCCCC1`, the Potency was inactive: > 76.9 µM.
In the case of `CCOc1ccc(NC(=O)CCN2CCCCC2)cc1`, the Potency is reported as inactive: > 76.9 µM.
With `CCCCc1nc2ccccc2n1Cc1nnc2n1-c1ccccc1SC2` the Potency was inactive: > 76.9 µM.
With `C=C(C)Cn1c(C(C)NC(=O)CCC)nc2ccccc21` (stereo not given) the Potency was inactive: > 76.9 µM.
`O=C(c1cc(-c2cccs2)on1)N1CCc2ccccc2C1` was tested, and the Potency was inactive: > 76.9 µM.
In the case of `O=C(Nc1ncc2c(n1)CC(c1ccco1)CC2=O)c1ccccc1` (stereo not given), the Potency is reported as inactive: > 76.9 µM.
With `CCCNS(=O)(=O)c1cc(Br)cc2c1N(C(=O)CC)CC2` the Potency was inactive: > 76.9 µM.
`COc1cc(C2C(C#N)=C(N)Oc3n[nH]c(-c4ccncc4)c32)cc(OC)c1OC` (stereo not given) was tested, and the Potency was inactive: > 76.9 µM.
For `CCOC(=O)c1[nH]c(C)c(C(=O)N2CCc3ccccc32)c1C`, the Potency was inactive: > 76.9 µM.
With `Nc1nc(NC(=O)CCCC(=O)O)nn1-c1ccccc1` the Potency was inactive: > 76.9 µM.
In the case of `Cc1cc(C)n(CC(=O)NC2CCCCC2)n1`, the Potency is reported as inactive: > 76.9 µM.
In the case of `COc1cc(OC)c(N2CC34C=CC(O3)C(C(=O)O)C4C2=O)cc1Cl` (stereo not given), the Potency is reported as inactive: > 76.9 µM.
For `O=S(=O)(c1ccc(N2CCCC2c2nc3ccccc3s2)nc1)N1CCOCC1` (stereo not given), the Potency was inactive: > 76.9 µM.
`O=C1C=C(OCc2ccccc2)CN1` was tested, and the Potency was inactive: > 76.9 µM.
With `Cc1cc(C)nc(N2CCN(c3ncnc4c3cnn4Cc3ccc(Cl)cc3Cl)CC2)n1` the Potency was inactive: > 76.9 µM.
`Cc1sc(NC(=O)CSc2nnc3scc(-c4ccccc4)n23)c(C#N)c1C` was tested, and the Potency was inactive: > 76.9 µM.
`Cc1nn(-c2ccccc2)c2sc(C(=O)N3CCOCC3)cc12` was tested, and the Potency was inactive: > 76.9 µM.
With `CCOC(=O)c1c(N)c(C#N)c2n1CCCCC2` the Potency was inactive: > 76.9 µM.
For `O=S(=O)(CC(CN1CCCC1)N1CCCC1)c1ccc2ccccc2c1` (stereo not given), the Potency was inactive: > 76.9 µM.
With `Cc1cc(C(=O)CSc2nnc(-c3ccc(OC(F)F)cc3)o2)c(C)n1Cc1cccs1` the Potency was inactive: > 76.9 µM.
In the case of `O=C(c1ccccc1F)N(Cc1ccccc1)C1CCS(=O)(=O)C1` (stereo not given), the Potency is reported as inactive: > 76.9 µM.
For `O=C(C1CCCC1)N(c1ccccc1)C1C=CS(=O)(=O)C1` (stereo not given), the Potency was inactive: > 76.9 µM.
`CCOc1ccc(NC(=O)CN2CCN(CC(=O)Nc3cccc(F)c3)CC2)cc1` was tested, and the Potency was inactive: > 76.9 µM.
In the case of `Cc1ccc(C(c2nnnn2C(C)(C)C)N2CCc3ccccc3C2)cc1` (stereo not given), the Potency is reported as inactive: > 76.9 µM.
`C=CCn1c(NCc2ccc3c(c2)OCO3)nc2ccccc21` was tested, and the Potency was inactive: > 76.9 µM.
`CC(C)(C)OC(=O)N1CCC[C@H]1c1nnc(SCc2c(Cl)cccc2Cl)o1` was tested, and the Potency was inactive: > 76.9 µM.
For `Cc1nc2ccc(-c3ccccc3)cc2o1`, the Potency was inactive: > 76.9 µM.
`CCCCCn1c(N)c(C#N)c2nc3ccccc3nc21` was tested, and the Potency was active: 2.68 µM.
`CS(=O)(=O)c1ccc(C(=O)NC2CCOC2=O)cc1` (stereo not given) was tested, and the Potency was inactive: > 76.9 µM.
For `O=C(CN(Cc1ccc2c(c1)OCO2)C(=O)CNS(=O)(=O)c1ccccc1)NCc1ccco1`, the Potency was inactive: > 76.9 µM.
For `COc1cc2cc(C(c3nnnn3C(C)(C)C)N3CCc4ccccc43)c(=O)[nH]c2cc1OC` (stereo not given), the Potency was inactive: > 76.9 µM.
For `O=C(CN1C(=O)c2ccccc2S1(=O)=O)N1CCN(c2cccc(Cl)c2)CC1`, the Potency was inactive: > 76.9 µM.
For `Cc1cc(C)c2cc(CN(CCN3CCCC3)C(=O)Nc3ccc(F)cc3)c(=O)[nH]c2c1`, the Potency was inactive: > 76.9 µM.
`CC(Sc1ccccc1)C(=O)Nc1cccc(N(C)S(C)(=O)=O)c1` (stereo not given) was tested, and the Potency was inactive: > 76.9 µM.
In the case of `CCOP(=O)(c1ccc(N(C)C)cc1)C(O)c1ccc(Cl)cc1` (stereo not given), the Potency is reported as inactive: > 76.9 µM.
For `O=C(C1=C(O)C(=O)N(Cc2ccccc2)C1c1ccncc1)c1ccco1` (stereo not given), the Potency was inactive: > 76.9 µM.
`CN=C(Nc1cc(C)nn1CCC#N)c1ccccc1F` was tested, and the Potency was inactive: > 76.9 µM.
In the case of `Cc1cc(S(=O)(=O)Nc2ccccc2C(=O)O)ccc1Cl`, the Potency is reported as inactive: > 76.9 µM.
With `COc1ccc(-n2nc(C(=O)NCC(=O)N3CCN(c4ccccn4)CC3)c3ccccc3c2=O)cc1` the Potency was inactive: > 76.9 µM.
For `CC(=O)Nc1ccc(S(=O)(=O)NCC2CCC(C(=O)N3CCN(c4ccccn4)CC3)CC2)cc1` (stereo not given), the Potency was “inactive”.
With `CCCCOC(=O)Nc1nnc(CCOCC)s1` the Potency was inactive: > 76.9 µM.
`O=C(CCCCCn1c(=O)[nH]c2ccsc2c1=O)N1CCCCC1` was tested, and the Potency was inactive: > 76.9 µM.
In the case of `O=C(CN(Cc1ccccc1)C(=O)CCC(=O)Nc1ccccn1)NCc1ccco1`, the Potency is reported as inactive: > 76.9 µM.
`O=C(c1cccs1)N1CCN(S(=O)(=O)Cc2ccccc2)CC1` was tested, and the Potency was inactive: > 76.9 µM.
`COc1ccccc1-c1nc(C#N)c(N2CCc3ccccc3C2)o1` was tested, and the Potency was inactive: > 76.9 µM.
In the case of `CCC1C2CN(C(C)=O)CC=C2C(C#N)=C(N)C1(C#N)C#N` (stereo not given), the Potency is reported as inactive: > 76.9 µM.
`CC(C)OC(=O)CSc1nnc(-c2cnccn2)n1-c1ccc(Cl)cc1` was tested, and the Potency was inactive: > 76.9 µM.
For `COc1cccc(-c2nc(-c3ccccn3)no2)c1OC`, the Potency was inactive: > 76.9 µM.
In the case of `Cc1ccc(Cn2c(-c3nonc3N)nc3ccccc32)cc1`, the Potency is reported as inactive: > 76.9 µM.
`Cc1ccc(C(CC(=O)N2CCCC2)c2ccccc2)c(O)c1C` (stereo not given) was tested, and the Potency was inactive: > 76.9 µM.
For `O=C(c1cnsn1)N1CCN(c2ccccc2)CC1`, the Potency was inactive: > 76.9 µM.
For `O=C(COc1ccccc1)Nc1ccccc1N1CCN(c2ccccc2)CC1`, the Potency was inactive: > 76.9 µM.
For `COc1ccc2cc(CN(Cc3ccco3)C(c3nnnn3C3CCCCC3)C(C)C)c(=O)[nH]c2c1` (stereo not given), the Potency was “inactive”.
In the case of `Cc1cn(C2C=CC(CO)O2)c(=O)[nH]c1=O` (stereo not given), the Potency is reported as inactive: > 76.9 µM.
In the case of `CCOC(=O)c1cccc(NC(=O)Nc2cc(OC)ccc2OC)c1`, the Potency is reported as inactive: > 76.9 µM.
For `CCc1cccc(NC(=O)c2ccc(Br)o2)c1`, the Potency was inactive: > 76.9 µM.
With `CCc1ccc(N2C(=O)C3ON(c4ccccc4)C(c4ccco4)C3C2=O)cc1` (stereo not given) the Potency was inactive: > 76.9 µM.
For `COc1ccccc1CNC(=O)CSc1nc2nc(C)cc(C)n2n1`, the Potency was inactive: > 76.9 µM.
With `COc1cc(-c2noc(CCC(=O)Nc3cccnc3)n2)cc(OC)c1OC` the Potency was inactive: > 76.9 µM.
`Cc1onc(-c2c(Cl)cccc2Cl)c1C(=O)NC(C)(C)CO` was tested, and the Potency was inactive: > 76.9 µM.
With `Nc1nnc(-c2ccncc2)s1` the Potency was inactive: > 76.9 µM.
In the case of `O=C1Nc2ccccc2C(O)(C(=O)NC2CC2)N1c1ccc(Cl)c(Cl)c1` (stereo not given), the Potency is reported as inactive: > 76.9 µM.
In the case of `CC(C)c1[nH]nc2c1C(C(C)C)C(C#N)=C(N)O2` (stereo not given), the Potency is reported as inactive: > 76.9 µM.
With `CCc1ccccc1NC(=O)Cn1nnc(-c2cccnc2)n1` the Potency was inactive: > 76.9 µM.
For `Cc1cc2c(nn1)CCC/C2=N\O`, the Potency was inactive: > 76.9 µM.
With `CC(C)CNS(=O)(=O)c1ccc(CCC(=O)Nc2ccc3c(c2)OCO3)cc1` the Potency was inactive: > 76.9 µM.
`CCN(CC)CCCN(C(C)=O)c1nc(-c2cc(OC)ccc2OC)cs1` was tested, and the Potency was inactive: > 76.9 µM.
With `O=C(c1ccc2c(c1)OCO2)N(c1ccccc1)C1C=CS(=O)(=O)C1` (stereo not given) the Potency was inactive: > 76.9 µM.
In the case of `Cc1cc(C)c2oc(=O)cc(CN3CCOCC3)c2c1`, the Potency is reported as inactive: > 76.9 µM.
For `Cc1cc(C(=O)CSc2nnc(-c3cccc(F)c3)n2N)c(C)n1Cc1ccc2c(c1)OCO2`, the Potency was inactive: > 15.4 µM.
In the case of `CCn1c(SCC(=O)N2CCOCC2)nc2oc3c(Cl)cc(Cl)cc3c(=O)c2c1=O`, the Potency is reported as inactive: > 76.9 µM.
For `O=C(Cn1c(C(=O)N2CCN(C3CCCCC3)CC2)cc2sccc21)c1ccccc1`, the Potency was “inactive”.
`Cc1nnc(SC(C)C(=O)Nc2ccc3c(c2)OCCO3)s1` (stereo not given) was tested, and the Potency was inactive: > 76.9 µM.
With `Cc1ccc(Cn2nnc3c(=O)n(CC(=O)NCC4CCCO4)cnc32)cc1` (stereo not given) the Potency was inactive: > 76.9 µM.
For `COCC(=O)N(Cc1cc2ccccc2[nH]c1=O)c1ccccc1OC`, the Potency was inactive: > 76.9 µM.
With `Cc1c(NC(=O)c2c(F)c(F)c(F)c(F)c2F)c(=O)n(-c2ccccc2)n1C` the Potency was inactive: > 76.9 µM.
In the case of `Cc1cc(C)n(-c2nc3ccccc3c(=O)n2OCC(=O)OCc2ccccc2)n1`, the Potency is reported as inactive: > 76.9 µM.
`O=C(CC1(O)C(=O)Nc2cc(Cl)cc(Cl)c21)c1ccncc1` (stereo not given) was tested, and the Potency was inactive: > 76.9 µM.
With `CCc1cccc2c(=O)c(C(=O)N3CCCCCC3)c[nH]c12` the Potency was inactive: > 76.9 µM.
In the case of `CC(C)C(C(=O)Nc1nccs1)c1ccccc1` (stereo not given), the Potency is reported as inactive: > 76.9 µM.
